Measurements: PubChem BioAssay AID761 (NMMLSC, 2007)
Screen size: about 190,000 compounds; about 400 (0.21%) were called active. This list was built around the results that the source calls inconclusive (neither active nor inactive); the mix of calls is not that of the screen.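 Rule for the calls: active = percent activity GTP binding at least 20 points away from the 100% baseline, either down as inhibitor or up as activator; inconclusive = compound flagged as likely green fluorescent from well-wide comparison; inactive = the rest.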

What follows are compounds tested against Cell division control protein 42 homolog (Homo sapiens) (UniProt P60953) (assay: wildtype Cdc42 fluorescent GTP binding changes, either direction – biochemical, multiplex bead flow cytometry, Bodipy-GTP, primary screen (AID 761;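 note: median bead fluorescence of bound Bodipy-FL-GTP at 100 nM; 0% = excess unlabeled GTP control and 100% = no compound control; below 100% means less GTP binding so inhibitor and above means activator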)). Conditions: GST-Cdc42 beads, at 10 µM, actives lie on both sides.
Chain of UniProt P60953 (P60953 whole entry, looked up): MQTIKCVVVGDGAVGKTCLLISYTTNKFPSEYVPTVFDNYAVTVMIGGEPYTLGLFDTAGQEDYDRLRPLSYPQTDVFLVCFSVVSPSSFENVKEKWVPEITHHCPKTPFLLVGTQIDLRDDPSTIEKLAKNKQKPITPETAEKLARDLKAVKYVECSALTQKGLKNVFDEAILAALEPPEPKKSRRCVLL

Which percent activity (GTP binding) does the source give for CCOc1ccc(NC(C)C(=O)N/N=C/c2ccc([N+](=O)[O-])cc2)cc1 (configuration not stated) here?
The percent activity (GTP binding) was inactive: 98%.

For CN1CCN/C1=C(/C(Cl)=C(Cl)Cl)[N+](=O)[O-], which percent activity (GTP binding) is on record?
The percent activity (GTP binding) was inactive: 100%.

How did the percent activity (GTP binding) turn out when O=c1c2ccccc2nc2c3ccccc3c3nncn3n12 was run?
The percent activity (GTP binding) was inconclusive: 85%.

Which percent activity (GTP binding) does the source give for CCOC(=O)C1(Cc2ccc(OC)cc2)CCN(C(=O)c2cc3ccccc3[nH]2)CC1 here?
The percent activity (GTP binding) was inconclusive: 92%.

Which percent activity (GTP binding) does the source give for COc1ccc(CNC2CCCCC2)cc1 here?
Its percent activity (GTP binding) is inconclusive: 110%.

With CC(C)NC(=O)c1ccccc1NC(=O)Cc1ccc(Br)cc1 as the compound, how does the percent activity (GTP binding) read?
Its percent activity (GTP binding) is inactive: 100%.

With Cc1cccc(C2=NNC(=O)C(c3ccc(Cl)cc3)C2)c1 (configuration not stated) as the compound, how does the percent activity (GTP binding) read?
The percent activity (GTP binding) was inconclusive: 91%.

How did the percent activity (GTP binding) turn out when C=C[C@]1(C)C[C@H]1[C@H](NP(=O)(c1ccccc1)c1ccccc1)c1ccccc1 was run?
Its percent activity (GTP binding) is inactive: 100%.

CCN(CC)CCNC(=O)C(=O)NCC1OCCN1S(=O)(=O)c1ccc2c(c1)OCCO2 (configuration not stated) was tested. Which percent activity (GTP binding) did it give?
Its percent activity (GTP binding) is inactive: 91%.

Cn1c(=O)c2ncn(CC(=O)N=Nc3c(O)[nH]c4ccccc34)c2n(C)c1=O was tested. Which percent activity (GTP binding) did it give?
Its percent activity (GTP binding) is inconclusive: 90%.

Cc1[nH]n2c(=O)c3c(nc2c1-c1ccc(F)cc1)CCCC3 was tested. Which percent activity (GTP binding) did it give?
Its percent activity (GTP binding) is inactive: 87%.

With Nc1nc(N2CCN(c3ccc(F)cc3)CC2)n[nH]1 as the compound, how does the percent activity (GTP binding) read?
The percent activity (GTP binding) was inactive: 96%.

With Cc1ccc(C(=O)N2CCCC(c3ccc(Cl)cc3)=N2)cc1 as the compound, how does the percent activity (GTP binding) read?
The percent activity (GTP binding) was inactive: 98%.

Which percent activity (GTP binding) does the source give for COC(=O)c1ccc(COc2ccc(/C=C(\C#N)c3nc4ccccc4[nH]3)cc2OC)o1 here?
Its percent activity (GTP binding) is inactive: 101%.

Which percent activity (GTP binding) does the source give for Cc1cc(C)cc(N=Cc2[nH]c3ccc(Br)c(Cl)c3c2O)c1 here?
The percent activity (GTP binding) was inconclusive: 138%.

How did the percent activity (GTP binding) turn out when C/C=C/c1ccc(OCC(=O)Nc2ccc(C(N)=O)cc2)c(OC)c1 was run?
The percent activity (GTP binding) was inconclusive: 93%.

How did the percent activity (GTP binding) turn out when O=C1OC(/C(=C\Nc2cc(Cl)ccc2O)[N+](=O)[O-])c2ccccc21 (configuration not stated) was run?
The percent activity (GTP binding) was inconclusive: 91%.

With CC(C)C12CN3CC(C(C)C)(CN(C1)C3c1ccco1)C2=O (configuration not stated) as the compound, how does the percent activity (GTP binding) read?
Its percent activity (GTP binding) is inconclusive: 114%.

With O=C(c1cc[n+]([O-])cc1)N1CCc2c([nH]c3ccccc23)C1c1ccccc1Cl (configuration not stated) as the compound, how does the percent activity (GTP binding) read?
Its percent activity (GTP binding) is inconclusive: 96%.

How did the percent activity (GTP binding) turn out when COCCNC(=O)Cn1c(=O)n(Cc2ccco2)c(=O)c2ccccc21 was run?
Its percent activity (GTP binding) is inconclusive: 104%.

Which percent activity (GTP binding) does the source give for CC(C)CCNC(=O)CCCOc1cc(=O)n(C)c2ccccc12 here?
The percent activity (GTP binding) was inconclusive: 93%.

With O=C(CCn1nc(-c2ccc(Cl)cc2)ccc1=O)N1CCN(c2ccccn2)CC1 as the compound, how does the percent activity (GTP binding) read?
Its percent activity (GTP binding) is inconclusive: 107%.

For Nc1nc(SCC(=O)c2cc(F)ccc2F)n[nH]1, which percent activity (GTP binding) is on record?
Its percent activity (GTP binding) is inconclusive: 92%.

Which percent activity (GTP binding) does the source give for Cc1ccc(Oc2nc(-c3cccnc3)nc3ccccc23)c([N+](=O)[O-])n1 here?
Its percent activity (GTP binding) is inconclusive: 93%.

O=C(O)c1ccccc1C(=O)OCc1ccccc1 was tested. Which percent activity (GTP binding) did it give?
The percent activity (GTP binding) was inactive: 115%.

For COc1ccc2nc(C)cc(SCC(=O)N/N=C/c3ccc(O)c(O)c3)c2c1, which percent activity (GTP binding) is on record?
The percent activity (GTP binding) was active: 69%.

With O=C(CCNC(=O)c1ccccc1)Nc1cccnc1 as the compound, how does the percent activity (GTP binding) read?
Its percent activity (GTP binding) is inactive: 98%.

CC(=O)Nc1ccc(-c2ccc3nnc(C)n3n2)cc1 was tested. Which percent activity (GTP binding) did it give?
The percent activity (GTP binding) was inactive: 92%.

Which percent activity (GTP binding) does the source give for CCOc1ccc(N2CC(C(=O)Nc3ccc4c(c3)OCO4)CC2=O)cc1 (configuration not stated) here?
Its percent activity (GTP binding) is inconclusive: 96%.

With O=C(/C(C=Nc1cc2c(oc1=O)CCCC2=O)=C(\O)c1ccccc1)c1ccccc1 as the compound, how does the percent activity (GTP binding) read?
Its percent activity (GTP binding) is inactive: 93%.

Which percent activity (GTP binding) does the source give for O=[N+]([O-])c1cccc(Nc2nc(Cl)nc(Cl)n2)c1 here?
The percent activity (GTP binding) was inconclusive: 89%.

How did the percent activity (GTP binding) turn out when CCOc1ccccc1OCCCOc1ccc(C)cc1Cl was run?
The percent activity (GTP binding) was inconclusive: 92%.

With Nc1nc(SCc2ccc(Cl)c(Cl)c2)n[nH]1 as the compound, how does the percent activity (GTP binding) read?
The percent activity (GTP binding) was inconclusive: 103%.

Cc1ccc(SC(CC(=O)c2ccc(C(C)(C)C)cc2)C(=O)O)cc1 (configuration not stated) was tested. Which percent activity (GTP binding) did it give?
The percent activity (GTP binding) was active: 77%.

COc1ccccc1/C=C/C(=O)NNC(=O)c1cccs1 was tested. Which percent activity (GTP binding) did it give?
Its percent activity (GTP binding) is inactive: 97%.

Which percent activity (GTP binding) does the source give for COCCNC(=S)NNC(=O)c1ccc(-n2cnnn2)cc1 here?
Its percent activity (GTP binding) is inactive: 106%.

With COCCNC(=S)N/N=C(\C)c1cccc(OC)c1 as the compound, how does the percent activity (GTP binding) read?
The percent activity (GTP binding) was inactive: 95%.

Which percent activity (GTP binding) does the source give for O=C(NNc1nc2c(F)cccc2s1)c1cc(=O)c2ccccc2o1 here?
The percent activity (GTP binding) was inactive: 81%.

With CCOC(=O)c1c(-c2ccc(C)cc2)csc1NC(=O)/C(C#N)=C/c1ccc(O)c(OC)c1 as the compound, how does the percent activity (GTP binding) read?
Its percent activity (GTP binding) is inconclusive: 111%.

For O=C(/C=C/c1ccco1)Nc1ccc(-c2nc3ccccc3[nH]2)cc1, which percent activity (GTP binding) is on record?
Its percent activity (GTP binding) is inconclusive: 142%.

How did the percent activity (GTP binding) turn out when Cc1ccc(NCc2nnc(SCCN3CCCCC3)n2CC2CCCO2)c(C)c1 (configuration not stated) was run?
The percent activity (GTP binding) was inactive: 98%.

How did the percent activity (GTP binding) turn out when COc1ccc(C)cc1NC(=O)c1cc2cc3ccc(C)cc3nc2o1 was run?
Its percent activity (GTP binding) is inactive: 102%.

Which percent activity (GTP binding) does the source give for CCOC(=O)c1c(-c2cccs2)csc1NC(=O)c1ccncc1 here?
The percent activity (GTP binding) was inconclusive: 108%.

Which percent activity (GTP binding) does the source give for Cc1ccc(N2CCN(C(=O)N3CCOCC3)CC2)c(C)c1 here?
Its percent activity (GTP binding) is inconclusive: 89%.

Which percent activity (GTP binding) does the source give for O=C(Oc1ccc2c(c1)OCO2)c1ccc(Br)c(S(=O)(=O)N2CCOCC2)c1 here?
The percent activity (GTP binding) was inconclusive: 93%.

How did the percent activity (GTP binding) turn out when CCCCNC(=S)Nc1ccc2[nH]c(=O)[nH]c2c1 was run?
Its percent activity (GTP binding) is inactive: 97%.

Which percent activity (GTP binding) does the source give for CCOC(=O)CN(C(=O)CSc1nnc2c(n1)[nH]c1ccc(OC)cc12)c1ccc(F)cc1 here?
The percent activity (GTP binding) was inconclusive: 85%.
